Experimental findings from the antibiotic and cytotoxicity screens of Wong et al. (2023) are described below.

One assay relates to HSkMC. The experiment in a line: cytotoxicity call (relative viability < 0.9). The note with it: 10 µM.
The subject of the next assay is HepG2. The assay can be described thus: cytotoxicity call (relative viability < 0.9). The note with it: 10 µM.
Another assay concerns S. aureus RN4220. The assay can be described thus: growth inhibition call (relative growth <= 0.2). The note with it: 50 µM.

The other results are listed elsewhere or left out.

For `C[C@H]1CN([C@@H](C)CO)C(=O)c2cccc(NC(=O)NC3CCCCC3)c2O[C@@H]1CN(C)S(C)(=O)=O`, the cytotoxicity call with HSkMC and with HepG2 was “inactive” throughout. Also, the growth inhibition call with S. aureus RN4220 was “inactive”.
As to `C[C@@H]1CN([C@H](C)CO)C(=O)c2cccc(NC(=O)c3cnccn3)c2O[C@@H]1CN(C)C(=O)Nc1ccccc1`, the cytotoxicity call with HSkMC and with HepG2 was “inactive” in each case. In the assay with S. aureus RN4220, the growth inhibition call was “inactive”.
For the compound `CC(C)[C@@H](N)c1ncnn1C`, the cytotoxicity call in the assay with HSkMC and in the assay with HepG2 was “inactive” each time. Further, the growth inhibition call in the assay on S. aureus RN4220 was “inactive”.
Regarding `O=C(C[C@@H]1CC[C@H]2[C@@H](COC[C@@H](O)CN2S(=O)(=O)c2ccc(Cl)cc2)O1)N[C@H]1CCN(Cc2ccccc2)C1`, the cytotoxicity call with HSkMC and in the assay with HepG2 was “inactive” each time. Moreover, in the assay with S. aureus RN4220, the growth inhibition call was “inactive”.
Regarding `COc1ccc(NC(=O)N(C)C[C@@H]2OCCCC[C@H](C)Oc3ccc(NC(=O)c4ccncc4)cc3C(=O)N([C@@H](C)CO)C[C@@H]2C)cc1`, the cytotoxicity call in the assay on HSkMC and with HepG2 was “inactive” throughout. Moreover, the growth inhibition call in the assay on S. aureus RN4220 was “inactive”.
With `C[C@H](CO)N1C[C@H](C)[C@@H](CN(C)S(C)(=O)=O)Oc2ncc(C#CCN(C)C)cc2C1=O`, the cytotoxicity call in the assay with HSkMC and in the assay on HepG2 was “inactive” each time. In addition, the growth inhibition call with S. aureus RN4220 was “inactive”.
For `CN(C)CCOC(c1ccccc1)c1ccccc1.Cn1c(=O)c2[nH]c(Cl)nc2n(C)c1=O`, the cytotoxicity call in the assay on HSkMC and in the assay on HepG2 was “inactive” throughout. In addition, the growth inhibition call with S. aureus RN4220 is “inactive”.
With `COc1ccc(S(=O)(=O)N(C)C[C@@H]2Oc3ccc(NC(=O)Cc4ccccc4)cc3CC(=O)N([C@H](C)CO)C[C@@H]2C)cc1`, the cytotoxicity call with HSkMC is “inactive”. Besides, the cytotoxicity call with HepG2 was “active”. In addition, the growth inhibition call with S. aureus RN4220 is “inactive”.
Regarding `Cc1ccc(S(=O)(=O)N[C@H]2C=C[C@@H](CC(=O)NCCN3CCCCC3)O[C@H]2CO)cc1`, the cytotoxicity call in the assay with HSkMC and in the assay on HepG2 was “inactive” in each case. In addition, the growth inhibition call in the assay on S. aureus RN4220 is “inactive”.
As to `CN(C)CC(=O)N[C@@H]1CC[C@H](CCNC(=O)C2CC2)O[C@@H]1CO`, the cytotoxicity call in the assay with HSkMC and in the assay with HepG2 was “inactive” throughout. Also, in the assay with S. aureus RN4220, the growth inhibition call is “inactive”.
In the case of `C[C@H]1CN([C@@H](C)CO)C(=O)Cc2cc(NC(=O)Cn3cnnn3)ccc2O[C@@H]1CN(C)S(=O)(=O)c1cccs1`, the cytotoxicity call in the assay on HSkMC and with HepG2 was “inactive” each time. Besides, in the assay on S. aureus RN4220, the growth inhibition call is “inactive”.
Consider `CCCNC(=O)N1C[C@@H](O)COC[C@@H]2O[C@H](CC(=O)N3CCOCC3)CC[C@H]21`, for which the cytotoxicity call in the assay on HSkMC and in the assay with HepG2 was “inactive” throughout. In the assay on S. aureus RN4220, the growth inhibition call was “inactive”.
For `C[C@H](CO)N1C[C@H](C)[C@H](CN(C)C(=O)Cc2ccccn2)Oc2cc(C#Cc3ccccc3)ccc2S1(=O)=O`, the cytotoxicity call with HSkMC and in the assay on HepG2 was “inactive” throughout. The growth inhibition call in the assay on S. aureus RN4220 was “inactive”.
For `C[C@@H]1CN([C@H](C)CO)C(=O)c2cc(NC(=O)Cn3cnnn3)ccc2O[C@H]1CN(C)C(=O)Nc1ccccc1`, the cytotoxicity call in the assay with HSkMC and in the assay with HepG2 was “inactive” throughout. The growth inhibition call with S. aureus RN4220 was “inactive”.
With `COc1ccc(CN(C)C[C@@H]2OCCCC[C@@H](C)Oc3ccc(NC(=O)Nc4cccc5ccccc45)cc3C(=O)N([C@@H](C)CO)C[C@H]2C)cc1`, the cytotoxicity call in the assay on HSkMC and in the assay on HepG2 was “active” throughout. In the assay with S. aureus RN4220, the growth inhibition call is “inactive”.
`CN(C)Cc1cn(CC[C@@H]2CC[C@H](NC(=O)Cc3cccnc3)[C@H](CO)O2)nn1`: the cytotoxicity call in the assay with HSkMC and in the assay with HepG2 was “inactive” throughout. Further, in the assay with S. aureus RN4220, the growth inhibition call was “inactive”.
On to `CC(C)C#Cc1ccc2c(c1)O[C@H](CN(C)C(=O)c1cnccn1)[C@@H](C)CN([C@H](C)CO)S2(=O)=O`, for which the cytotoxicity call in the assay on HSkMC and in the assay with HepG2 was “inactive” in each case. The growth inhibition call in the assay on S. aureus RN4220 was “inactive”.
For `Cc1ccc(S(=O)(=O)N(C)C[C@H]2Oc3c(NC(=O)c4ccncc4)cccc3C(=O)N([C@@H](C)CO)C[C@@H]2C)cc1`, the cytotoxicity call with HSkMC and with HepG2 was “inactive” throughout. Also, the growth inhibition call in the assay on S. aureus RN4220 was “inactive”.
Take `c1cnc2c(c1)OCCN2`: the cytotoxicity call in the assay with HSkMC and in the assay with HepG2 was “inactive” throughout. In addition, the growth inhibition call in the assay on S. aureus RN4220 is “inactive”.
With `C[C@@H]1CN([C@@H](C)CO)C(=O)c2cccc(NC(=O)C3CCOCC3)c2O[C@@H]1CN(C)Cc1ccc(-c2ccccc2)cc1`, the cytotoxicity call in the assay on HSkMC and with HepG2 was “inactive” throughout. For the same compound, in the assay with S. aureus RN4220, the growth inhibition call is “inactive”.
On to `C[C@H]1CN([C@@H](C)CO)C(=O)Cc2cc(NC(=O)Nc3cccc4ccccc34)ccc2O[C@H]1CN(C)S(=O)(=O)c1cccs1`, for which the cytotoxicity call with HSkMC and in the assay with HepG2 was “inactive” in each case. The growth inhibition call in the assay on S. aureus RN4220 was “inactive”.
For `C[C@@H]1CN([C@@H](C)CO)C(=O)c2cc(NC(=O)CCCCCC(=O)Nc3ccccc3N)ccc2O[C@@H](C)CCCCO[C@@H]1CN(C)S(=O)(=O)c1ccc(Cl)cc1`, the cytotoxicity call in the assay on HSkMC and with HepG2 was “inactive” throughout. The growth inhibition call in the assay on S. aureus RN4220 is “inactive”.
For the compound `C[C@H]1CN([C@@H](C)CO)C(=O)c2c(c3ccccc3n2C)-c2ccccc2CO[C@H]1CN(C)C(=O)Nc1ccc2c(c1)OCO2`, the cytotoxicity call in the assay with HSkMC and with HepG2 was “inactive” throughout. The growth inhibition call in the assay with S. aureus RN4220 was “inactive”.
As to `COCC(=O)Nc1ccc2c(c1)C(=O)N(C)C[C@H](OC)[C@@H](C)CN(Cc1ccccc1F)[C@H](C)CO2`, the cytotoxicity call in the assay on HSkMC and in the assay with HepG2 was “inactive” each time. In addition, the growth inhibition call with S. aureus RN4220 was “inactive”.
As for `COc1ccc([Si](C)(C)[C@H]2[C@H](CCOC(=O)NCCCCCC(=O)NO)O[C@]3(C(=O)N(Cc4cccc(N5CCCCC5=O)c4)c4ccccc43)[C@@H]2C)cc1`, the cytotoxicity call in the assay with HSkMC and in the assay on HepG2 was “inactive” each time. In the assay with S. aureus RN4220, the growth inhibition call was “inactive”.
Regarding `C[C@@H]1CN([C@H](C)CO)C(=O)c2cc(NC(=O)Nc3cccc4ccccc34)ccc2O[C@@H]1CN(C)C(=O)Nc1ccc2c(c1)OCO2`, the cytotoxicity call in the assay on HSkMC (human skeletal muscle cells) and in the assay on HepG2 was “inactive” in each case. Besides, the growth inhibition call in the assay on S. aureus RN4220 is “inactive”.
For `CCN(CC)CCNC(=O)c1ccc(N)cc1.Cl`, the cytotoxicity call with HSkMC and in the assay on HepG2 was “inactive” in each case. The growth inhibition call in the assay with S. aureus RN4220 is “inactive”.
`CC(C)C[C@@H]1NC(=O)[C@H]2C[C@@H](C(=O)NCCCCCCNC(=O)CS)[C@@H](c3ccc(O)cc3)N2C1=O`: the cytotoxicity call with HSkMC and in the assay on HepG2 was “inactive” throughout. Further, the growth inhibition call with S. aureus RN4220 is “inactive”.
Consider `C[C@H]1CN([C@@H](C)CO)C(=O)c2cccc(N(C)C)c2O[C@@H]1CN(C)S(C)(=O)=O`, for which the cytotoxicity call with HSkMC and in the assay with HepG2 was “inactive” throughout. The growth inhibition call in the assay with S. aureus RN4220 is “inactive”.
On to `CC(C)CCCC(C)NC(C)C.Cl` (stereo unspecified), for which the cytotoxicity call with HSkMC and with HepG2 was “inactive” throughout. The growth inhibition call in the assay on S. aureus RN4220 is “inactive”.
As for `COc1ccc(S(=O)(=O)N(C)C[C@@H]2Oc3ccc(NS(=O)(=O)c4ccccc4)cc3CC(=O)N([C@@H](C)CO)C[C@@H]2C)cc1`, the cytotoxicity call with HSkMC and with HepG2 was “inactive” in each case. Moreover, the growth inhibition call in the assay with S. aureus RN4220 is “inactive”.
Regarding `CC(C)OC(=O)[C@H](C)N[P@](=O)(OC[C@H]1O[C@@H](n2ccc(=O)[nH]c2=O)[C@](C)(Cl)[C@@H]1O)Oc1ccccc1`, the cytotoxicity call with HSkMC and with HepG2 was “inactive” each time. For the same compound, in the assay with S. aureus RN4220, the growth inhibition call was “inactive”.
